The record followed here is article PMC6925443.

Protein sequences, listed by entry. Tags and fused reporters are not part of them. Residues count along the entry.
UniProt P28799, residues 18-593: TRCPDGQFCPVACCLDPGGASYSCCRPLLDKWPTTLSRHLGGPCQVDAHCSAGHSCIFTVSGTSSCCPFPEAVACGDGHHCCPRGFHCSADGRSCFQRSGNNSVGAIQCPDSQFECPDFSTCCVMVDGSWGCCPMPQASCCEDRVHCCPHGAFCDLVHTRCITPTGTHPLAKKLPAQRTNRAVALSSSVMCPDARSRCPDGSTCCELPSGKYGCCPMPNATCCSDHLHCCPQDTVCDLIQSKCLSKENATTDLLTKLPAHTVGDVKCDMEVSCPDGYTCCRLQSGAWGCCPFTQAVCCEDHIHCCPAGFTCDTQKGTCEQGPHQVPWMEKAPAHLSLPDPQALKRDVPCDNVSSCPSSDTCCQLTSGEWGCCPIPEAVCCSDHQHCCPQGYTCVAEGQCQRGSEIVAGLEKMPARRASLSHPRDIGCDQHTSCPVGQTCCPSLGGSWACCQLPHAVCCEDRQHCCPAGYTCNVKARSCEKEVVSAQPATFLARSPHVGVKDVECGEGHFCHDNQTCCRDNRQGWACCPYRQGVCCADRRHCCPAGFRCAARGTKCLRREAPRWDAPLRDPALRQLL
UniProt Q99523, residues 78-831: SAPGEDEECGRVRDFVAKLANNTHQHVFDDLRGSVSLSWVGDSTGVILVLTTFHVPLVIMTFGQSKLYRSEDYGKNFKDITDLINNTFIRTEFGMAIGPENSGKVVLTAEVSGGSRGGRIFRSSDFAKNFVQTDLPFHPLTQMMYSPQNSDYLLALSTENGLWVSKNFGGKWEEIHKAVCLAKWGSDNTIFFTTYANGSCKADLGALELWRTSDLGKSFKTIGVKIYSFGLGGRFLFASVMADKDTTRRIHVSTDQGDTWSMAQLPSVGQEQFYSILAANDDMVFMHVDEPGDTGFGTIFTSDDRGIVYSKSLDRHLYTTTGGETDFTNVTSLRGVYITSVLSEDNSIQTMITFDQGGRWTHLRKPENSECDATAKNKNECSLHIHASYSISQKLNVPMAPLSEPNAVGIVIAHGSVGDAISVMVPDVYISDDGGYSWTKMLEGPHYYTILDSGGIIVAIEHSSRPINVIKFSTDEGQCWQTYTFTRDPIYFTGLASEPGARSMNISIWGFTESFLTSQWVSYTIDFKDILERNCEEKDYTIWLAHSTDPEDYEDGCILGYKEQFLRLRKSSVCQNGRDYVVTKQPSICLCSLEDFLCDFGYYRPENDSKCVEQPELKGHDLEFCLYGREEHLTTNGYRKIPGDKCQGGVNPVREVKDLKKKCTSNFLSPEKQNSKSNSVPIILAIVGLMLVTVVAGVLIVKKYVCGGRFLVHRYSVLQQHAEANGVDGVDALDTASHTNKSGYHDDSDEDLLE
UniProt Q9NUM4: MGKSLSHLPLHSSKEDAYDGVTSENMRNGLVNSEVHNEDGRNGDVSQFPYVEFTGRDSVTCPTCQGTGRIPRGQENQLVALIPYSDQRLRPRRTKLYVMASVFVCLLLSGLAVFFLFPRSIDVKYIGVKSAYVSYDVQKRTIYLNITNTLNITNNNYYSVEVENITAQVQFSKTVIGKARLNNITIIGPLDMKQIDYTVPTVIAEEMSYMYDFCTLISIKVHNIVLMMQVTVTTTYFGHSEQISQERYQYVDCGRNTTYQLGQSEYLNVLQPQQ
UniProt P56817, residues 46-501: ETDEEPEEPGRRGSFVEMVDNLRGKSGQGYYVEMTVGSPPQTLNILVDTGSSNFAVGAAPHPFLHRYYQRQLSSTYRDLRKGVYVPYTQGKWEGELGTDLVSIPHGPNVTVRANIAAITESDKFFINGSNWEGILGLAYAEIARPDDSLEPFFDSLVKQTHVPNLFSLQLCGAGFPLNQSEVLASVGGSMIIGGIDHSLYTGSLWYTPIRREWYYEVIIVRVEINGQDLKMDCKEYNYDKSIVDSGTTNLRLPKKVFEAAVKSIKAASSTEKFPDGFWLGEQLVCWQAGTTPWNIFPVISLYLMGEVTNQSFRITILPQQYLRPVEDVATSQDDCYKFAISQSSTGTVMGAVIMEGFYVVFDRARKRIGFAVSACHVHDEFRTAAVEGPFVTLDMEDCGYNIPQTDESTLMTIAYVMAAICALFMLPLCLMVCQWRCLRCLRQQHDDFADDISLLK

These are yes or no findings as the source states them, for the method shown. Binding seen in cells or lysates may run through a third protein. Some binding calls cover weakened binding; strength is not graded here.

Assay [1] has as its target T1, Prosaposin (PSAP) of HEK cells (human (endogenous in HEK)) (UniProt P07602).
T1 sequence: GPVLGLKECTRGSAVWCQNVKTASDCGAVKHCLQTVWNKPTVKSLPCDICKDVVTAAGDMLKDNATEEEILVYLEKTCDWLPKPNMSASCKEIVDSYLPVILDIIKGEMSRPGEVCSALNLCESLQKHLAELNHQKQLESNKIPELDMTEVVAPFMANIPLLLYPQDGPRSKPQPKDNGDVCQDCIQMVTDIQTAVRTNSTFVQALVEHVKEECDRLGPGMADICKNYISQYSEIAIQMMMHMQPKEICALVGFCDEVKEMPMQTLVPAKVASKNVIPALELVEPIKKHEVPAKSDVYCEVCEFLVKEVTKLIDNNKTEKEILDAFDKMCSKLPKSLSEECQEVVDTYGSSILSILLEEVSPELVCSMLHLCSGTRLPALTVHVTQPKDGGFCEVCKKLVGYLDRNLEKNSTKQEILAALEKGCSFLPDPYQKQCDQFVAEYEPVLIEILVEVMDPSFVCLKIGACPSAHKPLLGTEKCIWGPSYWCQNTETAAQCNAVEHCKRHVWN
Nature of the assay: co-IP; RIPA extracts of PGRN-overexpressing HEK cells (100 ug); 2 ug goat anti-PGRN or rabbit anti-PSAP on protein G or protein A magnetic beads; 18 h at 4 C; washed three times with RIPA; eluted without reducing agent at 80 C; western blot. (In general: In western blotting, separated proteins are transferred to a membrane and probed.)

Assay [2] deals with T2, Prosaposin (PSAP) (human (endogenous in brain tissue)) (UniProt P07602).
T2 sequence: T1 sequence
Briefly: co-IP; RIPA extracts of human middle temporal gyrus (200 ug, centrifuged 14,000 g/30 min); 2 ug goat anti-PGRN or rabbit anti-PSAP on protein G or protein A magnetic beads; 18 h at 4 C; washed three times with RIPA; eluted without reducing agent at 80 C; western blot.

Assay [3] has as its target Progranulin (PGRN) (human (endogenous in brain tissue)) (UniProt P28799). Described as above.
The target in assay [4] is PGRN protein fused with a green fluorescent protein sequence (UniProt P28799). Briefly: co-IP; RIPA extracts of PGRN-overexpressing HEK cells (100 ug); 2 ug goat anti-PGRN or rabbit anti-PSAP on protein G or protein A magnetic beads; 18 h at 4 C; washed three times with RIPA; eluted without reducing agent at 80 C; western blot.

Regarding “PGRN protein fused with a green fluorescent protein sequence (from UniProt P28799 18-593)”, the binding entry in assay [1] is “binds”. For the molecule “Progranulin (PGRN) (from UniProt P28799 18-593)”, the binding result in assay [2] was “binds”. Same read-out and setting: with Sortilin (from UniProt Q99523 78-831) the entry was “binds weakly”. Consider TMEM106B (from UniProt Q9NUM4 1-274), for which the binding result in assay [3] and in assay [2] was “no binding” each time. Consider “beta-secretase-1 (BACE-1) (from UniProt P56817 46-501) (enzyme)”, for which the binding result in assay [3] is “no binding”; in assay [2], “binds”.

B1: Prosaposin (PSAP) (protein, UniProt P07602 17-524)
chain: T1 sequence
As for B1, the binding entry in assay [3] is reported as “binds”.

B2: Prosaposin (PSAP) of HEK cells (protein, UniProt P07602 17-524)
chain: T1 sequence
Consider B2, for which the binding entry in assay [4] is listed as “binds”.
